# Measurements reported in PubChem BioAssay AID588591 (National Center for Advancing Translational Sciences (NCATS), 2011).
# Several values for one entry are separate records, joined by “and”; a condition that tells them apart may be missing. Equal values may be shown once. Among all 390,000 compounds or so, about 4,700 (1.2%) were called active. This list was built around the results that the source calls inconclusive (neither active nor inactive); the mix of calls is not that of the screen. Calls come from the whole dose curve; as a rule, active = well fitted inhibition curve with a large enough effect; inconclusive = small, poorly fitted or top-dose-only effect, or another doubt; inactive = no such curve, though single readings can be large or run the other way. A potency beside an inconclusive call is a rough fit, not a confirmed value.
# Target: DNA polymerase eta (Homo sapiens) (UniProt Q9Y253)
# Chain of UniProt Q9Y253 (Q9Y253 whole entry, looked up): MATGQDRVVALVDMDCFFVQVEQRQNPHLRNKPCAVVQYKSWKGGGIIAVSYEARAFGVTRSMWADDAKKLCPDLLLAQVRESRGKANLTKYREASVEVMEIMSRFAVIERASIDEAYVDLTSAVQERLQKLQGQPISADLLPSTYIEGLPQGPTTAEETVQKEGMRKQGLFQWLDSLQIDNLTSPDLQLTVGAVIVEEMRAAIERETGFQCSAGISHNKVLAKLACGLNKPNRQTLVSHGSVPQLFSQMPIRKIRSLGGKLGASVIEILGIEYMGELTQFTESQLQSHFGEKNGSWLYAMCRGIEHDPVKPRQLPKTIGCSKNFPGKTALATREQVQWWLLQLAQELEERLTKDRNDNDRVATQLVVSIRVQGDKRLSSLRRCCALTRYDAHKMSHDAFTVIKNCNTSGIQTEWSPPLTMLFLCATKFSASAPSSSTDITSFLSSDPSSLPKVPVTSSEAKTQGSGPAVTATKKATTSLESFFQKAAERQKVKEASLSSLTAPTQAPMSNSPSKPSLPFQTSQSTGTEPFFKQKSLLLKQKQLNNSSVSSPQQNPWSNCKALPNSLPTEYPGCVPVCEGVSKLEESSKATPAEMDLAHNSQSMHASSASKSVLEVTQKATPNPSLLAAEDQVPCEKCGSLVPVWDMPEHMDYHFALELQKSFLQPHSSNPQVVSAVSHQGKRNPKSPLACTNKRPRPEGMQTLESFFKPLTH
# Experiment: qHTS for Inhibitors of Polymerase Eta
# Details: recombinant Pol eta, fluorescent DNA replication assay; series mostly up to 114 µM; activity change, negative = inhibition: at the top concentration
# How it was run: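 Pol eta at 10 nM preincubated with compounds 15 min at room temperature; reaction started with fluorescent substrate (50 nM final) and read kinetically at 0 and 10 min.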
# % is set by controls: 0 for no effect and ±100 for the full control effect; potency is the fitted concentration of half-maximal effect; tags give direction and shape of the fitted curve.
Structure (SMILES),Potency,"activity change, negative = inhibition"
O=C(O)Cc1ccc(NC(=O)c2ccc3c(c2)C(=O)N(Cc2ccco2)C3=O)cc1,active: 3.98 µM,
CCOc1cccc(=O)c2c(C)n(-c3ccc(C(=O)O)cc3)c(C)c12,active: 28.2 µM,
CCOc1cc(/C=C(\C(=O)O)c2ccc(S(=O)(=O)N3CCCC3)s2)ccc1OC,,inactive: -1.33%
Cc1ccc(S(=O)(=O)N2CCCc3cc(NS(=O)(=O)c4ccc(F)c(C)c4)ccc32)cc1,"inconclusive: 28.2 µM [inhibitor, partial curve, poor fit]",
Cc1cccc(-c2nsc(SCC(=O)NCc3ccc4c(c3)OCO4)n2)c1,"inconclusive: 89.1 µM [inhibitor, partial curve, poor fit]",
Cn1nc(-c2ccc(C(=O)Nc3ccc(F)cc3)cc2)c2ccccc2c1=O,"inconclusive: 89.1 µM [inhibitor, partial curve, poor fit] and inconclusive: 15.8 µM [inhibitor, full curve]",
COc1ccc2cc(-c3nc4ccc(C(=O)O)cc4[nH]3)c(=O)oc2c1,active: 44.7 µM,
COc1cccc(COCC(O)CN2CCC(C(N)=O)CC2)c1 (centres undefined),"inconclusive: 79.4 µM [inhibitor, partial curve, poor fit]",
O=C(O)CSc1c2c(nc3cc(C(=O)Nc4ccc(F)c(Cl)c4)ccc13)CCC2,"inconclusive: 89.1 µM [inhibitor, single point]",
NC12CC3CC(C1)CC(CO)(C3)O2,"inconclusive: 31.6 µM [inhibitor, single point]",
CC(=O)N1CCc2c(sc(NC(=O)c3ccc([N+](=O)[O-])o3)c2C(N)=O)C1,active: 50.1 µM,
O=C(/C=C/c1ccco1)Nc1cccc(-c2nc3ccccc3[nH]2)c1,"inconclusive: 31.6 µM [inhibitor, partial curve, poor fit]",
CC1CN(C(=O)Nc2ccc(C(=O)NCc3cccc(F)c3)cc2)c2ccccc2S1 (centres undefined),,inactive: -12.7%
C=C(C)CCOC(=O)C(CC(=O)O)NCc1ccco1 (centres undefined),active: 11.2 µM,
O=C(Nc1ccc(C(F)(F)F)cc1)C1CCCN(c2cnccn2)C1 (centres undefined),"inconclusive: 100 µM [inhibitor, partial curve, poor fit]",
CC1(C)Cc2c(C#N)c(N3CCOCC3)nc(-c3ccccc3)c2CO1,"inconclusive: 89.1 µM [inhibitor, partial curve, poor fit]",
CCCn1c2ccccc2c2nnc(SCC(=O)Nc3ncccn3)nc21,"inconclusive: 28.2 µM [inhibitor, single point]",
CCOc1ccccc1NC(=O)c1c(NC(=O)c2cccc(C)c2)sc2c1CCCC2,,inactive: -19.8%
O=C(O)Cc1csc(NC(=O)c2ccco2)n1,"inconclusive: 28.2 µM [inhibitor, partial curve, poor fit]",
Cc1ccc(-c2onc3ccc(C(=O)O)cc23)cc1,,inactive: -6.52%
CCN(c1ccc(NS(=O)(=O)c2cc(Cl)ccc2Cl)cc1)C(C)C,"inconclusive: 22.4 µM [inhibitor, partial curve, poor fit]",
Cc1ccc(NC(=O)c2c(C)oc3ccc(O)c(CN4CCCCCC4)c23)c(C)c1,,inactive: -16.1%

Structure (SMILES),Potency,"activity change, negative = inhibition"
CN(C)S(=O)(=O)c1cccc(C(=O)Nc2ccccc2C(=O)NC2CC2)c1,,inactive: -9.71%
O=C(Nc1nc2n(n1)C(c1ccccc1)C=C(c1ccccc1)N2)c1ccc(Cl)c([N+](=O)[O-])c1 (centres undefined),"inconclusive: 0.794 µM [inhibitor, full curve, poor fit]",
CCc1cccc(NC(=O)Cn2nc(-c3ccc(OC)cc3)ccc2=O)c1,,inactive: -24%
COc1cc2c(cc1OC)CN(C(=O)/C=C/c1ccc([N+](=O)[O-])cc1)CC2,,inactive: -9.1%
NS(=O)(=O)c1ccc(NC(=O)CSc2nnc(NC3CC3)s2)cc1,active: 20 µM,
Cn1c(-c2ccc(Br)o2)nc2cc(Br)ccc21,"inconclusive: 28.2 µM [inhibitor, partial curve, poor fit]",
O=C(c1ccc(=O)oc1)N1CCN(c2ccc(F)cc2)CC1,"inconclusive: 12.6 µM [inhibitor, full curve, poor fit]",
Cc1cc(-c2ccccc2)nc2cc(C(=O)N(Cc3ccccc3)Cc3ccccc3)nn12,"inconclusive: 15.8 µM [inhibitor, partial curve]",
CCC(C(=O)OCC(=O)Nc1ccc(Cl)c(S(=O)(=O)N(C)C)c1)c1ccccc1 (centres undefined),"inconclusive: 79.4 µM [inhibitor, partial curve, poor fit]",
COc1ccccc1CNC(=O)c1ccc(-c2nc(CN3CCc4ccccc43)c(C)o2)cc1,"inconclusive: 89.1 µM [inhibitor, single point]",
CCN1C(N(C)CCc2cccs2)=N[C@@H](c2ccccc2)C(C(=O)OC)=C1C,,inactive: -3.78%
O=C(Nc1ccc(S(=O)(=O)Nc2cnc3ccccc3n2)cc1)c1ccc(Cl)cc1Cl,"inconclusive: 44.7 µM [inhibitor, partial curve]",
Cc1cc(N2CCOCC2)nc(-c2ccccc2O)n1,,inactive: -7.34%
Cn1c(=O)oc2cc(S(=O)(=O)Nc3ccc(C(=O)O)cc3)ccc21,active: 89.1 µM,
OCC1(Cc2ccccc2F)CCCN(Cc2c(F)ccc(F)c2F)C1 (centres undefined),,inactive: -24.5%
Cc1cc(C)c2c(CC(=O)N(Cc3ccccc3)C3CCS(=O)(=O)C3)coc2c1 (centres undefined),"inconclusive: 89.1 µM [inhibitor, partial curve, poor fit]",
Cc1ccc(OCc2cc(C(=O)NCc3cn4ccccc4n3)no2)cc1C,"inconclusive: 89.1 µM [inhibitor, single point]",
CC(C(=O)Nc1ccccc1Cl)N(c1ccccc1)S(C)(=O)=O (centres undefined),"inconclusive: 89.1 µM [inhibitor, partial curve, poor fit]",
Cc1ccc(C(=O)N2CCN(c3nc4ccccc4n3C)CC2)cc1,,inactive: -3.51%
CCCCC1=CC2=CC(=O)C(C)(OC(=O)CC)C(=O)C2=CN1c1ccccc1 (centres undefined),,inactive: -1.52%
Cc1ccc(CNC(=O)c2ccc(-n3cccc3)cc2)cc1,active: 12.6 µM,
Cc1ccc(-c2noc(CN(C(=O)C(c3ccccc3)c3ccccc3)C(C)C)n2)cc1,"inconclusive: 7.94 µM [inhibitor, partial curve, poor fit]",
